The supplement of paper PMC4604168 (melanoma cell lines)
The other results are listed elsewhere or left out. Repeats are few or missing, and single values can be far off.

Experiments:
Assay in all cases: cell count relative to DMSO control; melanoma cells; higher = more viable cells
Conditions in all cases: library dose: standard library concentration; 72 h
[1] = system: G361
[2] = system: IPC-298
[3] = system: IST-MEL1
[4] = system: LB2518-MEL
[5] = system: LOXIMVI
[6] = system: MEL-HO
[7] = system: MZ2-MEL
[8] = system: MeWo
[9] = system: RPMI7951
[10] = system: RVH-421
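Further: cells treated in 1,536-well plates, then fixed and DAPI-stained, with nuclei counted from automated high-throughput microscope images.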

Row | Structure (SMILES) | cell count [1] [%] | cell count [2] [%] | cell count [3] [%] | cell count [4] [%] | cell count [5] [%] | cell count [6] [%] | cell count [7] [%] | cell count [8] [%] | cell count [9] [%] | cell count [10] [%]
1 | CCCS(=O)(=O)Nc1ccc(F)c(C(=O)c2c[nH]c3ncc(Cl)cc23)c1F + CCc1ccc(CCOc2ccc(CC3SC(=O)NC3=O)cc2)nc1 [pioglitazone] (first compound 0.4 µM, partner dose 10 µM) | 62.8 | 65.9 | 79.7 | 93.8 | 98.5 | 72.4 | 82.1 | 85 | 93.1 | 68.3
2 | CS(=O)(=O)c1ccc(C(=O)Nc2ccc(Cl)c(-c3ccccn3)c2)c(Cl)c1 [vismodegib] + COc1cc(Nc2ncc(F)c(Nc3ccc4c(n3)NC(=O)C(C)(C)O4)n2)cc(OC)c1OC [Tamatinib] (first compound 5 µM, partner dose 2 µM) | 64.4 | 75.7 | 72.6 | 68.9 | 34.3 | 69.9 | 67.5 | 78.6 | 24.5 | 61
3 | NC1(c2ccc(-c3nc4ccn5c(=O)[nH]nc5c4cc3-c3ccccc3)cc2)CCC1 + C=C(c1ccc(C(=O)O)cc1)c1cc2c(cc1C)C(C)(C)CCC2(C)C [Bexarotene] (first compound 2 µM, partner dose 10 µM) | 78.2 | 80.7 | 75.5 | 73.8 | 87.3 | 83 | 76.6 | 84 | 63.9 | 93.3
4 | CS(=O)(=O)c1ccc(C(=O)Nc2ccc(Cl)c(-c3ccccn3)c2)c(Cl)c1 [vismodegib] + Cn1cncc1[C@@](N)(c1ccc(Cl)cc1)c1ccc2c(c1)c(-c1cccc(Cl)c1)cc(=O)n2C [tipifarnib] (first compound 5 µM, partner dose 0.05 µM) | 82.9 | 108 | 91.3 | 78 | 82.5 | 99 | 117 | 97.3 | 92.3 | 98.8
5 | C=C(c1ccc(C(=O)O)cc1)c1cc2c(cc1C)C(C)(C)CCC2(C)C [Bexarotene] + Cn1nnc2c(C(N)=O)ncn2c1=O [temozolomide] (first compound 10 µM, partner dose 10 µM) | 68.4 | 108 | 69.2 | 151 | 69.9 | 76.1 | 92.3 | 103 | 84.7 | 71.6
6 | CN(c1ncccc1CNc1nc(Nc2ccc3c(c2)CC(=O)N3)ncc1C(F)(F)F)S(C)(=O)=O + O=C(O)[C@@H]1[O][Sb](=[O])([O][Sb]2(=[O])[O][C@H]([C@H](O)CO)[C@H](O)[C@H](C(=O)O)[O]2)[O][C@H]([C@H](O)CO)[C@@H]1O [stibogluconate] (first compound 0.4 µM, partner dose 10 µM) | 97.7 | 86.9 | 97.8 | 112 | 90.1 | 106 | 83.8 | 97.9 | 77.4 | 117
7 | CN(c1ncccc1CNc1nc(Nc2ccc3c(c2)CC(=O)N3)ncc1C(F)(F)F)S(C)(=O)=O + Clc1ccc(Nc2nnc(Cc3ccncc3)c3ccccc23)cc1 [vatalanib] (first compound 0.4 µM, partner dose 10 µM) | 49.4 | 55.1 | 65.8 | 50.2 | 81.9 | 60.7 | 41.1 | 65.9 | 52.4 | 78.4
8 | CN(c1ncccc1CNc1nc(Nc2ccc3c(c2)CC(=O)N3)ncc1C(F)(F)F)S(C)(=O)=O + COc1ccc2c(c1)CCC1C2CCC2(C)C(NCCCCCCN3C(=O)C=CC3=O)CCC12 [U73122] (first compound 0.4 µM, partner dose 2 µM) | 104 | 102 | 105 | 108 | 84.5 | 104 | 109 | 70 | 71.8 | 111
9 | CS(=O)(=O)c1ccc(C(=O)Nc2ccc(Cl)c(-c3ccccn3)c2)c(Cl)c1 [vismodegib] + CC(=O)O[C@@]12CO[C@@H]1C[C@H](O)[C@@]1(C)C(=O)[C@H](O)C3=C(C)[C@@H](OC(=O)[C@H](O)[C@@H](NC(=O)OC(C)(C)C)c4ccccc4)C[C@@](O)([C@@H](OC(=O)c4ccccc4)[C@H]21)C3(C)C [Docetaxel] (first compound 5 µM, partner dose 0.0005 µM) | 11.2 | 30.1 | 32.2 | 23.8 | 46.9 | 35.9 | 39.7 | 24.2 | 25.4 | 63
10 | CS(=O)(=O)c1ccc(C(=O)Nc2ccc(Cl)c(-c3ccccn3)c2)c(Cl)c1 [vismodegib] + O=C(O)c1ccc2c(c1)nc(Nc1cccc(Cl)c1)c1ccncc12 [CX4945] (first compound 5 µM, partner dose 2 µM) | 56.7 | 72.6 | 75.3 | 101 | 43.9 | 57.2 | 62 | 84.6 | 82.1 | 77.2
11 | NC1(c2ccc(-c3nc4ccn5c(=O)[nH]nc5c4cc3-c3ccccc3)cc2)CCC1 + Cc1ccc(NC(=O)c2cccc(N(C)C)c2)cc1NC(=O)c1ccc(O)cc1 [ZM336372] (first compound 2 µM, partner dose 10 µM) | 96.4 | 123 | 89.1 | 79 | 85.7 | 90.2 | 97.9 | 98.9 | 81.8 | 85.5
12 | CS(=O)(=O)c1ccc(C(=O)Nc2ccc(Cl)c(-c3ccccn3)c2)c(Cl)c1 [vismodegib] + COc1ccc(COc2ccc(Cc3cnc(N)nc3N)cc2OC)cc1 [GW2580] (first compound 5 µM, partner dose 5 µM) | 93 | 92.9 | 101 | 117 | 85.8 | 90.2 | 103 | 79.8 | 89.2 | 79.9
